Measured values from the supplement of paper PMC3334620.
Over roughly 33,000 sequences, “E-score (-0.5 to 0.5)” has its median near -0.021; the highest 2% begin near 0.32. This is one part of the list.

Molecular target: T1, Zap1 (UniProt P47043)
T1 sequence: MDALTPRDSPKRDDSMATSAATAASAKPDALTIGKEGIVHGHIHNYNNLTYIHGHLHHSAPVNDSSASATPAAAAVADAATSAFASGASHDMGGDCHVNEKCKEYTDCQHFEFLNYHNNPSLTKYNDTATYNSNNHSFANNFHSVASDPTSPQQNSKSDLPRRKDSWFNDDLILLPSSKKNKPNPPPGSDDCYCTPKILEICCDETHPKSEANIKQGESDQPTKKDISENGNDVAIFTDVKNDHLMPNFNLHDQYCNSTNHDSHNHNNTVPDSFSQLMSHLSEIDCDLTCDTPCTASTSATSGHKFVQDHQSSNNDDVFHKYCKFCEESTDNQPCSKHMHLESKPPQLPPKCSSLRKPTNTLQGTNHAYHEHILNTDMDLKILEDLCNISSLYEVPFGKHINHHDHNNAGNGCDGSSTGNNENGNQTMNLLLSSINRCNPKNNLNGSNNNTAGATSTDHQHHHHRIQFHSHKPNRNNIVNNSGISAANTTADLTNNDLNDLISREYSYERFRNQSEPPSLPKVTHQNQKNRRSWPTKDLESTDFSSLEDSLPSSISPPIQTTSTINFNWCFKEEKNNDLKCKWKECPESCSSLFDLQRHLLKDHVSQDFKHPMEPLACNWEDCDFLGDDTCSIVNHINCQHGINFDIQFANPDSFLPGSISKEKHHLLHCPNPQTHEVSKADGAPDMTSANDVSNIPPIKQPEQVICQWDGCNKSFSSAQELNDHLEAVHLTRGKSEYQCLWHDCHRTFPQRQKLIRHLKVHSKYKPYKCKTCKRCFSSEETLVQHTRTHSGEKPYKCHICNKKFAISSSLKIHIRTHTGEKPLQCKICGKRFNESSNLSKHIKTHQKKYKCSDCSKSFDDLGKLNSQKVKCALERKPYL
Experiment: PBM E-score (8-mer binding enrichment) (E-score (-0.5 to 0.5)); higher = stronger / more preferred TF binding; most listed sequences are background and not binding sites
Conditions: protein concentration: 200 nM; construct: GST-full length
How it was run: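 E-scores (a modified Wilcoxon-Mann-Whitney statistic) were assigned by the Universal PBM Analysis Suite to every ungapped eight-base word pooled with its reverse complement. The input came from universal all-10-mer Agilent arrays made double-stranded by primer extension and probed with GST-tagged yeast transcription factors at about 100-200 nM. Fluorescent anti-GST detected bound protein, and masliner normalised the scans.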

Sequence	PBM E-score
TCCCGGCA	-0.355
TCTAACAA	0.0492
CCAATCAC	-0.0499
CAAGAAAG	0.107
CCACCCCC	-0.194
CTTGTATA	-0.0122
AGGAACCA	0.0162
GTCTGTGA	0.196
ATGTGCTG	0.0861
AGTACTGC	-0.161
ACCTGCAT	0.153
CTAATAAG	0.0363
GGTCCGCA	0.168
AGGCAGTC	-0.266
ATCCTCAT	-0.205
CCAACGTC	-0.216
CCTTCTCC	-0.165
CTCAATTA	0.0765
CGACACGA	0.0841
AACGAAGC	-0.0293
AAACCTGT	0.0581
CAGACGGA	-0.0953
ACATATTC	0.0274
ACTAGCAT	-0.128
CGCATACC	0.226

Sequence	PBM E-score
AGGCGTAA	-0.126
AAGGCATG	-0.161
GAGTCGCA	-0.302
GGCAATGA	-0.157
CAGGTGAG	-0.253
AAAGTTTC	0.122
CAAGTACA	-0.0513
CACGCTGG	-0.141
GGCCCCAC	-0.102
CTGACTTC	-0.14
AGCAACCG	-0.0288
CATCAGGG	0.124
ACCCTCCA	0.341
AACGGGCT	-0.184
GGTGATTA	0.2
AATCGGCC	-0.107
CCGATCCA	-0.103
ATCAGACA	-0.126
AACTTGCG	-0.0906
CTAGTTAC	0.138
AAGGATTA	0.0673
GTACATTA	0.262
AGGTTGAC	0.0525
CTCATGAA	-0.0356
AGTTTGTG	-0.0265

Sequence	PBM E-score
ATAAACAA	0.201
AGGGATAT	-0.0838
CAGGGGCA	-0.192
CTCCTTCA	-0.168
CCCATGGC	0.146
GTCAAACA	-0.0478
GCGTAACA	-0.135
AATTTGCA	-0.116
CATGTGCC	-0.165
CCGTATCC	0.12
ATCCACGG	-0.0993
GTCCCGTA	-0.163
CACACTAC	0.103
AATTTAAC	0.267
GTAGCATA	-0.115
TTAAAAAA	0.253
CGAGCGAG	0.122
GTAAGGAA	0.0325
ACCCCGTG	0.28
CCGCTGGA	-0.159
CGTAATAC	0.0784
ATTATTCG	0.167
CTCCAGGC	-0.0429
CTTGCGGC	-0.201
GGCAGCAA	-0.0446

Sequence	PBM E-score
AATCCCGG	-0.0056
GGCCGGCC	0.0258
ACACCCTC	0.312
ATGCGACA	-0.013
CTTCTGCA	-0.151
GCGAACGA	-0.0105
ACAATTTA	0.127
AACGCACG	-0.062
GAATCTGA	-0.144
TCACACAA	-0.0334
CACGAGCC	-0.257
AAGTTTGA	-0.0775
AGCTTGCA	-0.0983
ACGTCCGA	-0.108
AGTCTTAC	-0.146
AAGATGTC	-0.155
AATCGTGT	-0.0802
CTTTCCAA	0.0741
AAGCACAT	-0.133
AGACGTCA	-0.19
AACTCGGA	0.00302
CATGGTGG	-0.122
CGTATTCC	-0.062
GCAGACCC	0.156
CGGCAGCC	-0.0872

Sequence	PBM E-score
AGTCCATA	-0.0532
AATCTTAC	0.0643
ACTCGGCT	-0.117
GATCCGAC	-0.236
AGAGATTA	-0.0587
ACCCGACG	0.111
CATAGGAG	-0.0334
ACTAACCA	0.282
GCGCCTAA	0.0328
CTCACAGC	0.0226
ATCTGCGG	0.188
ACCAATTG	0.0665
CACCGAAA	0.211
AAATCCTA	0.0285
ACGCCTCC	-0.219
ATCCCCAG	-0.166
AGAACCGG	-0.0565
AGCCGTTG	-0.0541
AGGGGGAG	-0.289
ACTGAAGA	0.0987
ATCTGAAT	0.0618
CCGTTGCC	-0.312
CCCGGCGC	-0.2
GGCTGTCA	-0.0697
ACAGGGAG	-0.211

Sequence	PBM E-score
AGTGCAGG	-0.0594
CCGAACTC	-0.0177
AGATACCA	0.137
ACTCTCAT	-0.0595
AGCGGAAA	0.0362
CCATGTAA	0.0197
TAAGGCAA	-0.0488
ATACCTTA	0.184
TCAGGCCA	-0.212
AGTGTTAG	0.157
AGTCATTG	-0.136
CCACGGCA	-0.076
GGGCTTAC	-0.0196
AAGGTGTG	-0.0153
CCCCTCAA	-0.068
CTACGTCC	-0.0484
GTACCCCA	0.35
ACAGGGCT	-0.17
ACATTACC	0.116
ACGTAGCC	-0.161
ATTTAAGA	-0.0597
ATTAGCCA	0.0457
GTCTATCA	-0.0328
CCGGGGAC	-0.154
ACCTCGAA	0.279

Sequence	PBM E-score
ACAGGAAA	0.0153
ACATGATA	0.0816
GCTGTTCA	0.0408
GAATACAC	-0.0335
ACAGAATA	0.028
GCAAGTGA	-0.0999
TAGGACAA	-0.015
AGGTTACA	0.453
CCCGTGGC	-0.133
GCCACCTA	-0.103
AATCCAAA	0.167
CATGGGCA	-0.138
GTGCAGCA	-0.159
AATTCACG	0.00938
CAACCTAC	0.0668
AAGTAGGG	-0.00414
AACTTTTC	0.118
AACTGGGC	-0.173
AGGGCCGG	-0.0152
AACATCCC	-0.00893
GGGACGCA	-0.117
ACGAGAAT	-0.0885
